# Source: the supplement of paper PMC11369174, “Proteome-scale characterisation of motif-based interactome rewiring by disease mutations” (Molecular Systems Biology, 2024)
# Positions count from the first letter of the chain named. Names and notes keep the numbering of the source. The list shows a part of the results. Single values of this set are uncertain.
# T1: PEX14_Pex14__O75381_16_84
# T1 chain: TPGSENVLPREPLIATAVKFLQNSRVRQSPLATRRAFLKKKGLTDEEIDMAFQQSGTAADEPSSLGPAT
# T2: GGA3_VHS__Q9NZ52_1_166
# T2 chain: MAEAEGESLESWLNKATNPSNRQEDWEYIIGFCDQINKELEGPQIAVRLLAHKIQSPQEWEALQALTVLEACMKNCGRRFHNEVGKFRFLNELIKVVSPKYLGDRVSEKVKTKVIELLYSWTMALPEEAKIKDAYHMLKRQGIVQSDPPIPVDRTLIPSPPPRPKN
# T3: SPOP_MATH__O43791_19_176
# T3 chain: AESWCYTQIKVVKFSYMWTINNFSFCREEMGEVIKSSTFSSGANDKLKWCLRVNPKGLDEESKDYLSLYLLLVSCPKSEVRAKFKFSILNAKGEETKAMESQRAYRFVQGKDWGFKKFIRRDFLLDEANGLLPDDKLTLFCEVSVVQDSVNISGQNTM
# B1: L674V L674V (peptide)
# chain: AILGAIWLLILADIHDFEIIVHRVEWATLLFFAALFVLMEA
# B2: W679C W679C (peptide)
# chain: IWLLILADIHDFEIILHRVECATLLFFAALFVLMEALAHLH
# B3: W679R W679R (peptide)
# chain: B2 chain with C21R
# B4: D329G D329G (peptide)
# chain: EQMRKIALESEGRPEEQMESGNCSGGDDDWTHLSSKEVDPS
# B5: C150S C150S (peptide)
# chain: SNCKQVIGTGSFFPKGEDFYSVTCHETKFAKHCVKCNKAIT
# B6: C153Y C153Y (peptide)
# chain: KQVIGTGSFFPKGEDFYCVTYHETKFAKHCVKCNKAITSGG
# B7: V1867M V1867M (peptide)
# chain: IPFEKSKVLFTLEELDEFTFMDETDQQAVPDVTRIGPSQEK
# B8: A8505T A8505T (peptide)
# chain: ANAGKYTCQIKNDAGMQECFTTLSVLEPATIVEKPESIKVT
# B9: T417I T417I (peptide)
# chain: PAPLCHSDDYVHISLPQATVIPPRKEERMDSARPCLHRQHH
# B10: S184N S184N (peptide)
# chain: GAPGGFVHSAAAAAAAAAAANSPVYVPTTRVGSMLPGLPYH
# B11: T3016M T3016M (peptide)
# chain: ERERCDGGLPGNTHLLPLRAMDFEVLSTKFEMQDLCFLGPF
# B12: S125L S125L (peptide)
# chain: RFPFYRENKQGWQNSIRHNLLLNECFVKVPRDDKKPGKGSY
# B13: D3555V D3555V (peptide)
# chain: ERLQFETADDEDFIWVQENIVEIILQLQKLTGQQGEEPSLV
# B14: R404W R404W (peptide)
# chain: VLAQLEEIEKERDQAIQSRDWIQLQYSQSLIEKDQYRKQVR
# B15: D554N D554N (peptide)
# chain: DEELAVDLEALVSKAEEEFFNIIFAELKKKEADAIKLTPVP
# B16: V630I V630I (peptide)
# chain: ARRCSVTSMESTVSSGTQTTIQDDPEQFEVIKQQKEIIEHG
# B17: H2921R H2921R (peptide)
# chain: TRLLRKQAEEVNTEWEKLNLRSADWQRKIDETLERLQELQE
# B18: V911I V911I (peptide)
# chain: KSEAGVEVKKEVGVSITGTTIREERFEVLHGREAKVTETAR
# B19: R749W R749W (peptide)
# chain: LFLRRRAVVKEPLLPPEDDTWDNVYYYDEEGGGEEDQDFDL
# B20: P348L P348L (peptide)
# chain: SDNCSGGDDDWTHLSSKEVDLSTGELQSLQMPESEGPSSLD
# B21: R592W R592W (peptide)
# chain: QSRSSLNAKPHDSLDLNCDSWDFVAAIISIPTPPANTPDES
# B22: V450M V450M (peptide)
# chain: IYSFGLIIWEMARRCITGGIMEEYQLPYYNMVPSDPSYEDM
# B23: D2295V D2295V (peptide)
# chain: ALILDNKYTEHSTVGLAQQWVQLDQLGMRMQHNLEQQIQAR
# B24: R29708H R29708H (peptide)
# chain: SWGEPKDGGGTEITNYIVEKHESGTTAWQLVNSSVKRTQIK
# B25: S29710L S29710L (peptide)
# chain: GEPKDGGGTEITNYIVEKRELGTTAWQLVNSSVKRTQIKVT
# B26: M1347T M1347T (peptide)
# chain: LFGPKNDLEDYDADSDFEVLTKTAHGHLVPDRVDKDKEATK
# B27: R728H R728H (peptide)
# chain: PSGHPDQTGTNQHFVMVEVHHPDSEPDVNEVRALPQTRTAS
# B28: S492F S492F (peptide)
# chain: MNMFQAPTLPDISDDKDEWQFLDQNEDAFEAQFQKNVRSSG
# B29: M34218T M34218T (peptide)
# chain: SASSMTEMKFASMSAQSMSSTQESFVEMSSSSFMGISNMTQ
# B30: R915H R915H (peptide)
# chain: GVEVKKEVGVSITGTTVREEHFEVLHGREAKVTETARVPAP
# B31: R324Q R324Q (peptide)
# chain: ISFDTEEERQQWEDDQRQADQDWYMMDEGYDEFHNPLAYSS
# B32: M1347R M1347R (peptide)
# chain: B26 chain with T21R
# Assays:
# Assay in all cases: mutation enrichment score (mutant vs wild-type peptide binding to bait); baits are purified protein domains named by gene / domain / UniProt id / residues; peptides come from disordered regions of human proteins; higher = mutation enhances binding relative to wild type
# [1] = molecular target: GABARAPL1_ATG8__Q9H0R8_2_115; conditions: wild-type window: …
# [2] = molecular target: GABARAPL2_ATG8__P60520_2_115; conditions: wild-type window: …
# Chain of GABARAPL2_ATG8__P60520_2_115 (chain, as listed by the source): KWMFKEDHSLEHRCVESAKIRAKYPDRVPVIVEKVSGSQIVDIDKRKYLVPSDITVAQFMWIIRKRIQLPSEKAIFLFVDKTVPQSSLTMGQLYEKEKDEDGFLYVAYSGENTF
# [3] = molecular target: GABARAP_ATG8__O95166_2_115; conditions: wild-type window: …
# Chain of GABARAP_ATG8__O95166_2_115 (chain, as listed by the source): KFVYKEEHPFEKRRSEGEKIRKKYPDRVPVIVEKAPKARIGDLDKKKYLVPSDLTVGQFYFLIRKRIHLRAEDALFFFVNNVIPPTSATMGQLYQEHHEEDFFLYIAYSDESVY
# [4] = molecular target: MAP1LC3A_ATG8__Q9H492_2_121; conditions: wild-type window: …
# [5] = molecular target: MAP1LC3B_ATG8__Q9GZQ8_2_119; conditions: wild-type window: …
# [6] = molecular target: T1, PEX14_Pex14__O75381_16_84; conditions: number of wild-type / mutant comparisons summed (bounds the score): 12, wild-type window: …
# [7] = molecular target: Keap1_KELCH__Q14145_321_609; conditions: number of wild-type / mutant comparisons summed (bounds the score): 18; paper call: diminished; wild-type window: …
# Chain of Keap1_KELCH__Q14145_321_609 (chain, as listed by the source): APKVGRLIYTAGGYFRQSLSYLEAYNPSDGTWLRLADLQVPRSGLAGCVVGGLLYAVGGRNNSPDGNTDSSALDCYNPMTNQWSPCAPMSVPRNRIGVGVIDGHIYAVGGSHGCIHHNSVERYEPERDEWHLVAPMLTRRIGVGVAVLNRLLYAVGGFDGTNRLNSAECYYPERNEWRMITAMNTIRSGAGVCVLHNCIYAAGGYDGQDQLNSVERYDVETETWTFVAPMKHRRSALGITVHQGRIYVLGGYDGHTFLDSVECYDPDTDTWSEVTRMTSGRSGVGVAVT
# GGA3_VHS__Q9NZ52_1_166 = molecular target: T2, GGA3_VHS__Q9NZ52_1_166; conditions: number of wild-type / mutant comparisons summed (bounds the score): 12; paper call: no_effect; wild-type window: …
# SPOP_MATH__O43791_19_176 = molecular target: T3, SPOP_MATH__O43791_19_176; conditions: number of wild-type / mutant comparisons summed (bounds the score): 6; paper call: no_effect; wild-type window: …
# [8] = molecular target: USP7_MATH-TRAF__Q93009_53_206; conditions: paper call: no_effect, wild-type window: …
# Chain of USP7_MATH-TRAF__Q93009_53_206 (chain, as listed by the source): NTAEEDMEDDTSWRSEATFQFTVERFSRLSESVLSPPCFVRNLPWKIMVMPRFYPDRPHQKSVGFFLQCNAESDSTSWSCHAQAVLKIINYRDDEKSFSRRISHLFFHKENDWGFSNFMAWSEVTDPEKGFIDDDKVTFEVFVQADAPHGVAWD
# [9] = number of wild-type / mutant comparisons summed (bounds the score): 6, paper call: no_effect
# [10] = number of wild-type / mutant comparisons summed (bounds the score): 6, paper call: enhanced
# [11] = number of wild-type / mutant comparisons summed (bounds the score): 18, paper call: no_effect
# [12] = number of wild-type / mutant comparisons summed (bounds the score): 12, paper call: diminished
# [13] = number of wild-type / mutant comparisons summed (bounds the score): 12, paper call: no_effect
# [14] = number of wild-type / mutant comparisons summed (bounds the score): 12, paper call: enhanced
# [15] = number of wild-type / mutant comparisons summed (bounds the score): 18, paper call: enhanced
# [16] = number of wild-type / mutant comparisons summed (bounds the score): 10
# [17] = number of wild-type / mutant comparisons summed (bounds the score): 18, paper call: diminished
binder,measurement,setting,value
B1,mutation enrichment score,[1]; [9],-3
same,mutation enrichment score,[2]; [9],-4
B2,mutation enrichment score,[1]; [9],-3
same,mutation enrichment score,[2]; [9],-4
B3,mutation enrichment score,[1]; [9],-3
same,mutation enrichment score,[2]; [9],-2.8
same,mutation enrichment score,[3]; [9],0.27
same,mutation enrichment score,[4]; [9],3.6
B4,mutation enrichment score,[1]; [9],2
same,mutation enrichment score,[4]; [9],3
same,mutation enrichment score,[5]; [9],5.3
B5,mutation enrichment score,[1]; [9],0
B6,mutation enrichment score,[1]; [9],0
B7,mutation enrichment score,[1]; [9],-2
same,mutation enrichment score,[2]; [9],-5
B8,mutation enrichment score,[1]; [9],4
same,mutation enrichment score,[4]; [10],6
same,mutation enrichment score,[5]; [10],6
B9,mutation enrichment score,[1]; [9],5.7
same,mutation enrichment score,[2]; [9],5.8
same,mutation enrichment score,[3]; [9],2.8
same,mutation enrichment score,[4]; [9],5.8
same,mutation enrichment score,[5]; [9],5.1
B10,mutation enrichment score,[1]; [9],-1
B11,mutation enrichment score,[1]; [9],5
same,mutation enrichment score,[4]; [11],1.7
same,mutation enrichment score,[5]; [11],4.9
B12,mutation enrichment score,[1]; [9],0.31
B13,mutation enrichment score,[1]; [9],-1
B14,mutation enrichment score,[1]; [9],5
same,mutation enrichment score,[5]; [9],3
B15,mutation enrichment score,[1]; [9],5
same,mutation enrichment score,[5]; [9],1
same,mutation enrichment score,[6]; paper call: no_effect,3.3
B16,mutation enrichment score,[1]; [9],0
B17,mutation enrichment score,[1]; [12],-6
same,mutation enrichment score,[3]; [13],-3
B18,mutation enrichment score,[1]; [12],-6.1
same,mutation enrichment score,[2]; [9],-4
same,mutation enrichment score,[4]; [12],-7.5
same,mutation enrichment score,[5]; [12],-8.9
B19,mutation enrichment score,[1]; [14],7
same,mutation enrichment score,[4]; [14],6
same,mutation enrichment score,[5]; [14],9
B20,mutation enrichment score,[1]; [14],10
same,mutation enrichment score,[2]; [14],7.7
same,mutation enrichment score,[3]; [14],5.5
same,mutation enrichment score,[7],-16
same,mutation enrichment score,[4]; [14],7.8
same,mutation enrichment score,[5]; [14],7.6
B21,mutation enrichment score,[1]; [14],11
same,mutation enrichment score,[2]; [14],8
same,mutation enrichment score,[3]; [14],10
same,mutation enrichment score,[4]; [14],9
same,mutation enrichment score,[5]; [14],8
B22,mutation enrichment score,[1]; [13],-2
B23,mutation enrichment score,[1]; [13],4
same,mutation enrichment score,[2]; [15],8
same,mutation enrichment score,[4]; [14],12
same,mutation enrichment score,[5]; [13],3
same,mutation enrichment score,[6]; paper call: diminished,-7
B24,mutation enrichment score,[1]; [13],-3.7
same,mutation enrichment score,[2]; [13],-0.31
same,mutation enrichment score,[3]; [13],-1.5
same,mutation enrichment score,GGA3_VHS__Q9NZ52_1_166,-2
same,mutation enrichment score,SPOP_MATH__O43791_19_176,-2.6
same,mutation enrichment score,[8]; [16],-3
B25,mutation enrichment score,[1]; [13],-5.4
same,mutation enrichment score,[2]; [13],-4.4
same,mutation enrichment score,[3]; [13],-4
same,mutation enrichment score,GGA3_VHS__Q9NZ52_1_166,-2
same,mutation enrichment score,SPOP_MATH__O43791_19_176,-4
same,mutation enrichment score,[8]; [16],-3
B26,mutation enrichment score,[1]; [13],-3
same,mutation enrichment score,[4]; [12],-6
same,mutation enrichment score,[5]; [12],-9
B27,mutation enrichment score,[1]; [13],5
same,mutation enrichment score,[2]; [14],9
same,mutation enrichment score,[3]; [13],2.7
B28,mutation enrichment score,[1]; [15],16
same,mutation enrichment score,[2]; [14],6
same,mutation enrichment score,[3]; [11],4
same,mutation enrichment score,[4]; [15],5
same,mutation enrichment score,[5]; [15],12
B29,mutation enrichment score,[1]; [11],-5
same,mutation enrichment score,[8]; number of wild-type / mutant comparisons summed (bounds the score): 15,1.2
B30,mutation enrichment score,[1]; [11],-5.7
same,mutation enrichment score,[2]; [13],-5
same,mutation enrichment score,[4]; [17],-6.7
same,mutation enrichment score,[5]; [11],-6.6
B31,mutation enrichment score,[1]; [11],1
B32,mutation enrichment score,[1]; [11],-3
same,mutation enrichment score,[4]; [12],-6
same,mutation enrichment score,[5]; [17],-8.9
